In all, about 52,000 compounds went through this assay and about 4,300 (8.3%) were called active. No stated cut-off is given here; in the data, active means survival mostly below about 52% (no sharp cut-off); inactive means mostly above about 56%. The list shows a part of the results.

For the assay, the system named is DeltatarO mutant. Description: growth inhibition of S. aureus wild type versus tarO mutant, primary screen, teichoic acid synthesis inhibitors, RN4220, OD600 (AID 463173). Conditions: OD600, 18 h, stronger effect = lower value, screened at 18.75 µg/mL (by protocol).
For the molecule `CCc1cccc(NC(=O)c2ccc(CNS(=O)(=O)c3ccc4c(c3)C(C)(C)C(=O)N4C)cc2)c1`, the survival is inactive: 56%.
The value for `COc1ccccc1-c1cc2nc(C)c(CCC(=O)Nc3cc(C)ccc3C)c(C)n2n1` was inactive: 60%; that for `O=C(Oc1ccnc2cc(Cl)ccc12)N1CCCCC1` was inactive: 81%; that for `CCc1ccc(NC(=O)Cn2cnc3sc(C)c(S(=O)(=O)N4CCN(c5ccccc5OC)CC4)c3c2=O)cc1` was inactive: 118%.
As to `CC1CCN(C(=O)CSc2nc3cc4c(cc3cc2C#N)OCO4)CC1`, the survival was inactive: 110%.
The value for `Cc1[nH]c2ccccc2c1SCCNC(=O)c1ccccc1F` was inactive: 53%; that for `CCOc1ccc(CCNC(=O)c2cc3sc(CC)cc3n2C)cc1OCC` was inactive: 55%; that for `Cc1ccc(S(=O)(=O)N2CCC(n3c(C)nc4cccnc43)CC2)c(C)c1` was inactive: 79%.
Regarding `Cc1ccc(S(=O)(=O)c2cn(Cc3ccc(F)cc3)c3cc(N4CCCC4)c(F)cc3c2=O)cc1`, the survival was inactive: 94%.
The value for `N#Cc1c(-c2ccc3c(c2)OCO3)cc(-c2ccc(F)cc2)nc1N` was inactive: 81%; that for `CCc1ccccc1NC(=O)C(=O)NCCc1sc(-c2cccc(F)c2)nc1C` was inactive: 91%.
Next, `Cc1ccc(CNC(=O)c2ccc(-c3nc(CS(=O)(=O)c4ccc(C)cc4)c(C)o3)cc2)cc1`: inactive: 70%; `CCCCNCc1cccn1-c1ccccc1`: inactive: 100%.
`O=C(c1cccs1)N1CCC(Cc2ccccc2)CC1`: the survival is inactive: 86%.
With `COc1ccc(C(=O)NCC(c2ccco2)S(=O)(=O)c2cccs2)cc1OC` (stereo unspecified), the survival was inactive: 124%.
Turning to `O=C1CCN(C(=O)/C=C/c2ccccc2)c2ccccc21`, the survival was inactive: 88%.
`Cc1ccnc(NS(=O)(=O)c2ccc(NC(=O)c3nc(SC(C)C)ncc3Cl)cc2)n1`: the survival is inactive: 58%.
Turning to `CC(C)Oc1ccc(CNC(=O)Cn2ncn3nc(-c4cccs4)cc3c2=O)cc1`, the survival was inactive: 83%.
Turning to `COC(=O)c1ccccc1-n1c(CCC(=O)O)ccc1-c1ccccc1`, the survival was inactive: 180%.
Regarding `COc1cccc(CNC(=O)c2ccc3c(c2)nc2n3CCC(C)C2)c1OC` (stereo unspecified), the survival was inactive: 77%.
Regarding `CCOC(=O)Cc1cc(=O)[nH]c(/N=C(\N)Nc2cccc(Cl)c2)n1`, the survival is inactive: 90%.
On to `COc1ccc(CC(C(=O)O)c2ccccc2)cc1` (stereo unspecified), for which the survival is inactive: 65%.
The value for `CCOC(=O)C1CCCN(C(=O)c2[nH]c3ccccc3c2Sc2ccc(Cl)cc2)C1` (stereo unspecified) was active: 37%; that for `Nc1c(C(=O)Nc2cccc(C(F)(F)F)c2)c2ccccn2c1C(=O)c1ccccc1` was inactive: 77%; that for `CCOc1ccc(NC(=O)CN(C)S(=O)(=O)c2cnc[nH]2)cc1` was inactive: 103%.
On to `O=C(CSc1nnc2[nH]c(=O)cc(-c3ccccc3)n12)Nc1cc(C(F)(F)F)ccc1Cl`, for which the survival is inactive: 74%.
Regarding `COc1ccc(NC(=O)NC(C)c2c(-n3cccc3)sc3c2CCN(C)C3)c(OC)c1` (stereo unspecified), the survival was inactive: 70%.
For the molecule `COC(=O)c1cc(NC(=O)c2ccc(-c3ccc(Cl)cc3Cl)o2)cc(C(=O)OC)c1`, the survival is inactive: 53%.
For the molecule `COc1ccc(NC(=O)CCc2c(C)nc3c(-c4ccc(F)cc4)c(C)nn3c2C)c(OC)c1`, the survival is inactive: 65%.
Next, `Cc1ccccc1CN1CCCN(CC(=O)Nc2ccc3c(c2)OCCO3)S1(=O)=O`: inactive: 87%; `CCOC(=O)c1noc2nc(C)n(Cc3ccc([N+](=O)[O-])cc3)c(=O)c12`: inactive: 88%.
The value for `Cc1cccc(Cn2nnc3c(=O)[nH]c(C4CCN(C(=O)c5ccc(F)cc5)CC4)nc32)c1` was active: 28%; that for `CN1CCN(C(CNC(=O)c2ccccc2)c2ccc3c(c2)OCO3)CC1` (stereo unspecified) was inactive: 76%; that for `CCn1c(=O)cc(SCC(=O)N2CCN(c3ccccc3F)CC2)c2ccccc21` was inactive: 74%.
Take `COc1ccccc1NC(=O)c1cc(S(=O)(=O)NCCC2=CCCCC2)ccc1F`: the survival was inactive: 60%.
The value for `CC(=O)Nc1nonc1-c1nc2ccccc2n1Cc1ccccc1Br` was inactive: 81%; that for `COc1cc2c(cc1OC)C(COc1ccc3c(C)cc(=O)oc3c1)N(C(=O)CC(C)C)CC2` (stereo unspecified) was inactive: 72%.
Turning to `Cc1ccc2oc(-c3cc(NC(=O)/C=C/c4ccco4)ccc3Cl)nc2c1`, the survival was active: 40%.
As to `Brc1ccc2nc(SCCOc3ccccc3)[nH]c2c1`, the survival is active: -1%.
With `COc1c(Cl)cc(Cl)cc1/C=C(\C#N)C(N)=O`, the survival is inactive: 91%.
Take `Cc1ccc2c(c1)N(C(=O)Nc1cccc3c1CCCC3)CC(C)O2` (stereo unspecified): the survival was inactive: 56%.
Take `Cc1ccsc1CN1CCc2nc(N3CCN(c4ccccc4F)CC3)ncc2C1`: the survival was inactive: 76%.
In the case of `COc1cc(Cl)c(C)cc1NC(=O)c1cnc2c(-c3cccc(C)c3)c(C)nn2c1C`, the survival was inactive: 55%.
In the case of `CNC(=O)c1ccc(CSc2nc3ccncc3n2Cc2ccc(C)cc2)cc1`, the survival was inactive: 79%.
With `CCCN(C(=O)Cn1cc(S(=O)(=O)N2CCN(c3ccccc3F)CC2)c2ccccc2c1=O)c1cccc(C)c1`, the survival is inactive: 88%.
With `CC(C)CN(CCNC(=O)c1cc(-c2ccc(Cl)s2)nc2ccccc12)CC(C)C`, the survival is inactive: 60%.
Next, `CCOc1ccc(OCC)c(Nc2nc3ccc(Cl)cc3n3cnnc23)c1`: inactive: 65%.
The value for `COCC(O)CNc1ccccc1` (stereo unspecified) was inactive: 96%; that for `COc1cccc(CNC(=O)Cn2c(C)c3cnn(-c4ccccc4)c(=O)c3c2C)c1` was inactive: 94%; that for `CCC(Oc1ccccc1)C(=O)N1CCOCC1` (stereo unspecified) was inactive: 80%.
Regarding `CNC(=O)C1CCN(c2nc3ccccc3nc2C(F)(F)F)CC1`, the survival was inactive: 92%.
For the molecule `CCc1ccc(NC(=O)N2CCN(C(=O)c3nsc4ccccc34)CC2)cc1`, the survival was inactive: 87%.
As to `CN(C(=O)CSc1nnc(-c2ccc([N+](=O)[O-])cc2)o1)c1ccccc1`, the survival was inactive: 69%.
As for `Cc1ccc(CNC(=O)CCCn2c(=O)c3ccccc3n(Cc3ccc(Cl)cc3)c2=O)cc1`, the survival is inactive: 67%.
The value for `COc1ccc(CCNC(=O)Cn2cc(C(=O)c3ccc(F)cc3)c(=O)c3ccc(C)nc32)cc1OC` was inactive: 129%.
On to `COCCCNC(=O)C1CCCN(c2nn3cc(-c4ccc(C)cc4)nc3s2)C1` (stereo unspecified), for which the survival is inactive: 124%.
On to `CC(C)(C)C(=O)Cn1c(=O)n(-c2ccc(Cl)c(Cl)c2)c(=O)c2c3c(sc21)CCCC3`, for which the survival is inactive: 112%.
On to `COCc1cc(C)nc2sc(C(=O)Nc3cc(C)ccc3F)c(N)c12`, for which the survival was inactive: 66%.
On to `Cc1cc(C)cc(N2CCn3c2nc2c3c(=O)n(CCCc3ccccc3)c(=O)n2C)c1`, for which the survival was inactive: 67%.
The value for `COc1ccc(C(=O)NCCNc2nc3c(C)cccc3cc2C#N)cc1OC` was inactive: 67%; that for `Cc1cc(C)nc(NS(=O)(=O)c2ccc(NC(=O)COc3ccc(C(C)(C)C)cc3)cc2)n1` was inactive: 56%.
For the molecule `CN(C)c1ccc(/C=C2/SC(=Nc3ccccc3)NC2=O)cc1`, the survival was inactive: 111%.
On to `CCOC(=O)CC(NC(=O)N1CCC(CN2CCC(C)CC2)CC1)c1ccccc1` (stereo unspecified), for which the survival was inactive: 94%.
The value for `CC(=O)NC1CCN(C(=O)Nc2ccccc2)CC1` was inactive: 91%; that for `O=S(=O)(c1ccccc1)N1CCN(Cc2ccccc2)CC1` was inactive: 104%; that for `CC(C)Cn1cc(NC(=O)N2CCN(c3ccccc3F)CC2)c2ccccc2c1=O` was inactive: 101%.
Next, `Cc1cccc(C)c1Nc1c(-c2ccsc2)nc2ccc(Cl)cn12`: inactive: 80%; `CCc1ccccc1NC(=O)NCc1ccc2c(c1)CCN2C(=O)c1ccccc1`: inactive: 125%; `COC(=O)c1c(-c2ccc(Cl)cc2)noc1N1CCN(c2cccc(C(F)(F)F)c2)CC1`: inactive: 94%.
Turning to `CCCn1ccc2c(OCC(=O)NCc3ccccc3Cl)cccc2c1=O`, the survival is inactive: 124%.
With `Cc1cc2c(c(=O)o1)C(C(C)C)C(C#N)=C(N)O2` (stereo unspecified), the survival was inactive: 79%.
Take `Cc1nn(C)c2c1c(-c1ccccc1)cc(=O)n2C(C)C(=O)NCc1ccc(F)cc1` (stereo unspecified): the survival is inactive: 76%.
`O=C1CC(c2ccccc2)Cc2[nH]c(=O)c(-c3nc(-c4ccc(Cl)cc4)cs3)cc21` (stereo unspecified): the survival is inactive: 72%.
Turning to `CCN1CCN(C(c2cccc(F)c2)c2c(O)cc(C)n(Cc3ccco3)c2=O)CC1` (stereo unspecified), the survival is inactive: 76%.
Next, `Cc1ccc(-n2nnnc2CNC(=O)C(C)C)cc1C`: inactive: 105%.
Take `CCSc1nnc2c(n1)OC(CC)N(C(C)=O)c1ccccc1-2` (stereo unspecified): the survival was inactive: 128%.
As for `COc1ccc(OC)c(CCNC(=O)c2cnn(-c3ccccc3)c2C2CCN(C(=O)OC(C)(C)C)CC2)c1`, the survival is inactive: 73%.
The value for `COc1ccc(-c2cn3nc(N4CCCC(C(=O)NCc5ccccc5Cl)C4)sc3n2)cc1` (stereo unspecified) was inactive: 101%; that for `COc1cc(OC)cc(N2CCN(S(=O)(=O)c3ccc(-n4cnnn4)cc3)CC2)c1` was inactive: 72%.
Next, `O=c1c(N2CCN(c3cccc(C(F)(F)F)c3)CC2)csc2ccc(Cl)cc12`: inactive: 95%.
Consider `Cc1ccccc1CSc1nc2c(sc3ccccc32)c(=O)n1CCCOC(C)C`, for which the survival is inactive: 130%.
Take `COC(=O)c1cc2oc3ccccc3c2n1Cc1cc(C)ccc1C`: the survival is inactive: 130%.
`Cc1cccc(-n2ncc3c(NC4CCCC4)ncnc32)c1`: the survival is inactive: 69%.
Regarding `COc1cccc(CNC(=O)C2CCN(c3nnc(-n4c(C)ccc4C)s3)CC2)c1`, the survival was inactive: 89%.
With `CCc1ccc(-n2nc3ccc(NC(=O)c4ccc(C#N)cc4F)cc3n2)cc1`, the survival is inactive: 78%.
For `Fc1ccc(-c2cn3cc(Cc4ccc(Cl)cc4)sc3n2)cc1`, the survival is inactive: 55%.
`CCOc1ccc(-c2nnc(SCC(=O)NCc3ccc(C)cc3)nc2-c2ccc(OCC)cc2)cc1`: the survival was inactive: 106%.
As for `CC1(C)Oc2ccc(C(=O)Nc3ccccc3)cc2N(CC(=O)N2CCCC2)C1=O`, the survival was inactive: 103%.
The value for `S=C(Nc1ccccn1)c1ccccc1` was inactive: 76%; that for `CCOc1ccccc1C1CC(=O)Oc2c1c(=O)n(C)c1ccccc21` (stereo unspecified) was inactive: 57%; that for `Cc1ccc(Cl)cc1NC(=O)Cn1c(=O)c2ccccc2n2nncc12` was inactive: 93%.

Values taken from PubChem BioAssay AID463173 (ICCB-Longwood Screening Facility, Harvard Medical School, 2010).
